Our source for the binding values is publication PMC6750928.

The chains behind the UniProt entries cited, without tags or fusion partners. Residues count along the entry.
UniProt O15218: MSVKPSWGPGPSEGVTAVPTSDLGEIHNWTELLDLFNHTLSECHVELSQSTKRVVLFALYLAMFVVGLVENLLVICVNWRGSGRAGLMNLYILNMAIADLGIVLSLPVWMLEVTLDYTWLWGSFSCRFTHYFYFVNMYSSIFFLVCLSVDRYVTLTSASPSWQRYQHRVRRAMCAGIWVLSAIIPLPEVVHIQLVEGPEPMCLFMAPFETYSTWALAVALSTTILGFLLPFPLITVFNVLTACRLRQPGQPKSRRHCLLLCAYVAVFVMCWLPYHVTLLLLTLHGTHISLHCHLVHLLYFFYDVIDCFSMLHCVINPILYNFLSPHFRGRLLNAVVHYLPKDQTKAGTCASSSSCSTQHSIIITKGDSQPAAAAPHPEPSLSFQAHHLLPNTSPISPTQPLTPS
UniProt P32248, residues 25-378: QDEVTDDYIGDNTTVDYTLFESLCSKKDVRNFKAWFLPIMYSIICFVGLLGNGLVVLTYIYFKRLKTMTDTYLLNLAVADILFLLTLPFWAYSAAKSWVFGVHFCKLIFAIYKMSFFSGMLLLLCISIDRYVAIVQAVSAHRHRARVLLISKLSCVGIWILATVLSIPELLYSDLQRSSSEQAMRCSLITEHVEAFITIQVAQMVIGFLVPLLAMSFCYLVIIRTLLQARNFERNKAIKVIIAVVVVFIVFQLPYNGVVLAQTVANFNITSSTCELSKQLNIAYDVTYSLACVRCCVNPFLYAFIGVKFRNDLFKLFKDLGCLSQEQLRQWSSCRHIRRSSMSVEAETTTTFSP
UniProt P51681: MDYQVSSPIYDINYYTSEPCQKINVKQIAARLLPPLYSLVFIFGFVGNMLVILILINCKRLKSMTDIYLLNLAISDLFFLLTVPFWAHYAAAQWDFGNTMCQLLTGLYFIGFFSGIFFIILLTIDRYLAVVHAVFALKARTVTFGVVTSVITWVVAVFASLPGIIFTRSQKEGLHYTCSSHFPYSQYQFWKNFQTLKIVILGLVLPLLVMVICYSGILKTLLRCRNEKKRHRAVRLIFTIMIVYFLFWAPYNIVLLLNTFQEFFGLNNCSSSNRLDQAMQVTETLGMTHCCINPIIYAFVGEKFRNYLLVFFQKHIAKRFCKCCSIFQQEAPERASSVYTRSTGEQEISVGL
UniProt P25106: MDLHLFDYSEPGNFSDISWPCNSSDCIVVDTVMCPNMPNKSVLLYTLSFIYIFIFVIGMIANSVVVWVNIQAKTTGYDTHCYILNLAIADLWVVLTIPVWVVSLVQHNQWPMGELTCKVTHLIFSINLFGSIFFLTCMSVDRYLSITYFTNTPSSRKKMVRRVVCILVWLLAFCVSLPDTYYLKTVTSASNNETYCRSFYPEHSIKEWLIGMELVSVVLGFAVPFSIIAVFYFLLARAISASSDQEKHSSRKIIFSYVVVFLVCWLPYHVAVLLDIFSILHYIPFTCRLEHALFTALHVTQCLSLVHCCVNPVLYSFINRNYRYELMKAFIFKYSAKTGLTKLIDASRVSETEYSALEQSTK
UniProt O60894, residues 27-148: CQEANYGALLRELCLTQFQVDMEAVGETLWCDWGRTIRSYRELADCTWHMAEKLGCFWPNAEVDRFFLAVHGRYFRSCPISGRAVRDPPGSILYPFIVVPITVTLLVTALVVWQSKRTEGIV
UniProt O60895, residues 43-175: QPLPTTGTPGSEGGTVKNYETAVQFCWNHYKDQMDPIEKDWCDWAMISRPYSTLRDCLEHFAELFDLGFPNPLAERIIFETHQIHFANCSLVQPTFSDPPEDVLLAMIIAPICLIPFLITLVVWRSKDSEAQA

Holding throughout (assay): co-IP; multiplexed suspension bead array (SBA) immunoassay: clarified lysates (1% DM; 50 mM Hepes, 1 mM EDTA, 150 mM NaCl, 5 mM MgCl2, pH 7.4) of HEK293F cells cotransfected with tagged GPCR and RAMP, diluted to 50 ug/ml, incubated overnight at 4°C with bar-coded beads carrying anti-tag (HA, 1D4, FLAG, OLLAS), anti-GPCR or anti-RAMP Abs; the partner detected with a PE-conjugated anti-tag mAb; Luminex FlexMap 3D, MFI

Test [1] deals with T1, Cortocotropin-releasing hormone receptor 2 (human) (UniProt Q13324).
T1 sequence: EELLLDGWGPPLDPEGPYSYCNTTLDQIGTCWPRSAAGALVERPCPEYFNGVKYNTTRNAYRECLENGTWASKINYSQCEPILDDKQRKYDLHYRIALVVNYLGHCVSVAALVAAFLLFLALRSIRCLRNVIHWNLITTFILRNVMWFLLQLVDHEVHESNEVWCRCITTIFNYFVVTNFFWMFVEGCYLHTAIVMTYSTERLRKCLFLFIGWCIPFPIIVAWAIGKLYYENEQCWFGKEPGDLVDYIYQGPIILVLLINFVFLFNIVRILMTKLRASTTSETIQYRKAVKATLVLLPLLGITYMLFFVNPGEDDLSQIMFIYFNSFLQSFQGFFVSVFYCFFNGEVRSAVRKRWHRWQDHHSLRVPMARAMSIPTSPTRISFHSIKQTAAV

Test [2] has as its target G protein-coupled receptor 182 (human) (UniProt O15218).
Test [3] deals with T2, Gastric inhibitory polypeptide receptor (human) (UniProt P48546).
T2 sequence: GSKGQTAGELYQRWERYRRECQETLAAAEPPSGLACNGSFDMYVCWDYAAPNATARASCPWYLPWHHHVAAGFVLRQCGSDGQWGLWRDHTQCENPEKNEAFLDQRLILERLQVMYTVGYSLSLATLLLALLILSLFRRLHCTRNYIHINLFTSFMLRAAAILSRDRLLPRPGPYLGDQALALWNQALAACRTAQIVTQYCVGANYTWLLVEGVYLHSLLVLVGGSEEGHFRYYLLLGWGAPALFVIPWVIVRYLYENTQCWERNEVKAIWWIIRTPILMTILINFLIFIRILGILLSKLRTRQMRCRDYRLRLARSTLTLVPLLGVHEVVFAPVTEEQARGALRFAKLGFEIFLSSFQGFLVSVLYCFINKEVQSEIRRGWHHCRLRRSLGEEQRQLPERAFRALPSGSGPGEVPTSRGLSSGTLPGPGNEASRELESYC

The target in test [4] is C-C chemokine receptor type 7 (human) (UniProt P32248).
The target of test [5] is C-C chemokine receptor type 5 (human) (UniProt P51681).
The target in test [6] is Atypical chemokine receptor 3/C-X-C chemokine receptor 7 (human) (UniProt P25106).
Test [7] addresses T3, Growth hormone releasing hormone (human) (UniProt Q02643).
T3 sequence: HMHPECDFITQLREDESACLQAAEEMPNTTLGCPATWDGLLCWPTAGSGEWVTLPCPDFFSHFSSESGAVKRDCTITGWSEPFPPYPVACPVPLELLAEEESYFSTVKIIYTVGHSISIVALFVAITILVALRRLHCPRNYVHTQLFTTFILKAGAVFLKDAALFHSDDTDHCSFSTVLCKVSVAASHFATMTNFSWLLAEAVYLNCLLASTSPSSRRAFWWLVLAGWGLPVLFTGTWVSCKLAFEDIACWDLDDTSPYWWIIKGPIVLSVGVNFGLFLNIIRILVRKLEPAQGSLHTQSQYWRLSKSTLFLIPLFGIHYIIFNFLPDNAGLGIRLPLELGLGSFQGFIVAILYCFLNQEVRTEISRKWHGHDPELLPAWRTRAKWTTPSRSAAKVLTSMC

These are yes or no findings as the source states them, for the method shown. Binding seen in cells or lysates may run through a third protein. Some entries that bind do so weakly or less than the wild type.

Consider “Receptor activity-modifying protein 1 (from UniProt O60894 27-148)”, for which the binding result is listed as “no binding” in test [1]; “binds” in test [2]; “binds” in test [3]; “no binding” in test [4]; “no binding” in test [5].
As for “Receptor activity-modifying protein 2 (from UniProt O60895 43-175)”, the binding entry in test [1] is “no binding”; in test [2], “binds”; in test [6] it was “binds weakly”; in test [7], “binds”; in test [3], “binds”; in test [4] it was “no binding”. Also, in test [5], the binding result was “no binding”.

B1: Receptor activity-modifying protein 3 (protein, UniProt O60896 28-148)
chain: CNETGMLERLPLCGKAFADMMGKVDVWKWCNLSEFIVYYESFTNCTEMEANVVGCYWPNPLAQGFITGIHRQFFSNCTVDRVHLEDPPDEVLIPLIVIPVVLTVAMAGLVVWRSKRTDTLL
B1: the binding result in test [1] is given as “binds weakly”; in test [2], “binds”; in test [6], “binds weakly”; in test [7], “binds”; in test [3], “binds”.
